Data published in the supplement of paper PMC10126150.
Values marked as one replicate rest on one cluster of the flow cell; about a third of the high ones do not repeat.

Tested on: ATP
Assay: switch fluorescence ratio, 500 uM ATP over buffer (Cy3 cluster intensity, sum of 5 cycles each) (fold (ratio)); higher = stronger signal-on switching upon ATP binding; sequences stand for … in TCGTCGGCAGCGTCAGATGTGTATAAGAGACAGTTTTTTTTTTTTTTTTTTTTTTTTT…TC
Details: aptamer strand: ATP DNA aptamer (quencher-CACCTGGGGGAGTATTGCGGAGGAAGG + anchor), 100 nM annealed; ATP concentration: 500 uM; one replicate
Procedure, shortened: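 For every switch-domain sequence, the fluorescence ratio is the mean of per-cluster values, each being summed target-cycle Cy3 intensity over summed buffer-cycle Cy3 intensity. Clusters outside 100-1000 RFU were excluded. On a modified Illumina MiSeq flow-cell, the Cy3-labelled switching-strand clusters were annealed to 100 nM quencher-labelled ATP aptamer, imaged in selection buffer and then after 15 min with 500 uM ATP at 22 °C. Five such cycles were run, with NaOH stripping and re-annealing between them.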
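Note: ATP exposure 15 min at 22 °C before imaging.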

Sequence | switch fluorescence ratio
GCTACAATTA | 1.01
GCTACACGGG | 1.05
GCTACACTTT | 0.985
GCTACGTATA | 1.65
GCTACGTTAC | 2.75
GCTACGTTAG | 1.05
GCTACTCAAC | 2.08
GCTACTCGT | 1.05
GCTACTTGAG | 0.981
GCTAGAAACT | 1.03
GCTAGAATTT | 1.07
GCTAGACTC | 1.85
GCTAGGCAGC | 0.986
GCTAGGGGCC | 1.04
GCTAGGTCAC | 1.01
GCTAGTA | 1.02
GCTAGTACGG | 1.01
GCTAGTGTAG | 1.01
GCTATAACCG | 0.969
GCTATACATG | 0.951
GCTATATTGT | 0.987
GCTATCTTGA | 1.02
GCTATGAGCT | 1.02
GCTATGTGA | 0.975
GCTATTGAAC | 0.991
GCTCAATGGA | 0.969

Sequence | switch fluorescence ratio
GCTCACAAAT | 1
GCTCAGCCTA | 1.07
GCTCAGGTTC | 1.05
GCTCATCCG | 1.2
GCTCATGC | 1.34
GCTCCCCGTC | 1.17
GCTCCCGAAT | 1.43
GCTCCCTTGG | 1.36
GCTCCGTTGG | 1.65
GCTCCTGGAG | 0.97
GCTCCTGGGT | 1.02
GCTCCTTCTT | 1.05
GCTCGACGCC | 1.91
GCTCGCGACT | 1.04
GCTCGGCAAT | 6.26
GCTCGGCCAT | 1.24
GCTCGGGTGC | 1.27
GCTCGGGTGG | 0.985
GCTCGGTGAC | 1.05
GCTCGTAATA | 2.77
GCTCGTCAGG | 1.03
GCTCGTGTAG | 1.06
GCTCGTTTG | 1.04
GCTCTCCAAG | 1.03
GCTCTCTAGT | 0.987
GCTCTTAACT | 1.05

Sequence | switch fluorescence ratio
GCTCTTCAGG | 1.04
GCTGAAAAGC | 1.03
GCTGAAAGTT | 1.05
GCTGAAGGCG | 0.936
GCTGAAGTCT | 0.976
GCTGAATAGA | 1.04
GCTGAATGGG | 0.945
GCTGAATTGT | 1
GCTGAGCAAT | 1.39
GCTGAGTGGA | 1.05
GCTGATACAT | 1
GCTGATACCG | 1.17
GCTGATCGGC | 0.937
GCTGCATATG | 1.04
GCTGCATGCG | 1.03
GCTGCCTAGT | 0.978
GCTGCGTCAT | 1.03
GCTGCGTTTG | 1.01
GCTGCTGGAA | 1.04
GCTGCTTCTG | 0.988
GCTGGACTGC | 0.89
GCTGGAGGAT | 0.986
GCTGGATGGT | 0.939
GCTGGGGGTA | 1.01
GCTGGGGTCA | 0.989
GCTGGTATAC | 1.33

Sequence | switch fluorescence ratio
GCTGGTATGA | 0.973
GCTGGTTCCA | 0.997
GCTGGTTGTA | 1.11
GCTGTACACT | 0.991
GCTGTAGGAA | 1.02
GCTGTGATGG | 1.02
GCTGTGCTGA | 1.01
GCTGTGCTGT | 0.968
GCTGTTCGCC | 0.996
GCTTAAATGT | 0.974
GCTTAAATTA | 0.986
GCTTAACATG | 1
GCTTAACCG | 1.02
GCTTACCATA | 1.06
GCTTAGAAAT | 0.98
GCTTAGAACA | 0.961
GCTTAGTATT | 1.02
GCTTATGTTA | 0.979
GCTTATTCAT | 1.02
GCTTCAGAGA | 1.02
GCTTCATTAA | 0.984
GCTTCCAATA | 2.42
GCTTCGAACT | 1
GCTTCGCACT | 1.84
GCTTCGCTTT | 1.16
GCTTGATATC | 1.01

Sequence | switch fluorescence ratio
GCTTGCCGCT | 0.988
GCTTGCCTAT | 0.975
GCTTGGCCAC | 1.01
GCTTGGGCGG | 1.04
GCTTGTAAA | 0.975
GCTTGTGGTA | 1
GCTTGTGTCC | 0.972
GCTTTACATA | 1.05
GCTTTATACT | 1.06
GCTTTATTA | 0.974
GCTTTCCCAG | 1.14
GCTTTCGGTA | 0.998
GCTTTGAAGG | 0.951
GCTTTGAGCT | 0.981
GCTTTGGAAT | 0.977
GCTTTGGTAG | 0.941
GCTTTGGTCT | 1.02
GCTTTGTAT | 0.978
GCTTTTACGA | 1.08
GGAAAAAAAA | 1.08
GGAAAAGCAG | 1.01
GGAAAATGAA | 0.97
GGAAAGGATG | 1.29
GGAAATCGTA | 0.991
GGAAATTTCG | 0.95
GGAACAGAG | 1.01

Sequence | switch fluorescence ratio
GGAACAGAGC | 0.965
GGAACAGCCA | 0.98
GGAACATCAC | 1
GGAACCACGC | 1.08
GGAACCCAGG | 3.04
GGAACGCGAC | 1.55
GGAACGTATA | 1.08
GGAACTATAA | 1.01
GGAAGAAGGG | 0.931
GGAAGAGTGG | 0.97
GGAAGAGTTA | 1.02
GGAAGCCCAC | 1.06
GGAAGCGCAT | 1.06
GGAAGCTACC | 1.2
GGAAGGAGCG | 1.02
GGAAGGTCAT | 0.94
GGAAGTGATT | 1.14
GGAAGTGGTT | 0.996
GGAAGTTCGT | 0.959
GGAATAATAG | 1.03
GGAATATTAT | 0.969
GGAATGCACT | 1.01
GGAATGCAGA | 0.942
GGAATTGGAG | 1.04
GGAATTTAG | 0.977
GGACAATTAT | 0.97

Sequence | switch fluorescence ratio
GGACACACCC | 1.4
GGACACCGGT | 1.08
GGACATGGAG | 0.981
GGACATGTTT | 1.01
GGACCAGAAT | 0.991
GGACCGAGT | 1.01
GGACCTCCCT | 1.14
GGACGCCACC | 1.63
GGACGTTCTC | 1.04
GGACTCACGA | 1.32
GGACTCTAGC | 1.05
GGACTGG | 0.997
GGACTGTAGG | 0.982
GGACTGTGGT | 0.975
GGACTTATGT | 1.01
GGACTTCACT | 1.15
GGACTTCAGG | 0.95
GGACTTCCGC | 1.57
GGACTTTGAA | 0.981
GGAGAAAACA | 1.03
GGAGAACAGC | 1.01
GGAGAAGATG | 1.03
GGAGAAGGGC | 0.956
GGAGAGATGC | 0.991
GGAGAGCCTC | 0.933
GGAGAGGTT | 1.06

Sequence | switch fluorescence ratio
GGAGCAGGGT | 1.1
GGAGCATGTT | 1.15
GGAGCCGGTG | 1.03
GGAGCCTTTT | 0.965
GGAGCTAAAG | 1.31
GGAGCTGCCC | 1.12
GGAGGACCAC | 0.99
GGAGGAGACG | 0.985
GGAGGCAAAT | 1.09
GGAGGCTAGA | 1
GGAGGGAGAT | 2.05
GGAGGGTGCT | 0.956
GGAGGTACGA | 0.971
GGAGGTACGG | 1.02
GGAGGTGGTG | 0.967
GGAGGTTCGT | 0.997
GGAGTAACTA | 1.01
GGAGTAGTAT | 1.05
GGAGTCAGTG | 1.01
